{
  "source": "patent US7550150B2",
  "about": "“Methods of treating or preventing a disease, disorder or condition associated with a viral infection” (Barros Research Institute, priority 2005, dated 2009)",
  "molecules": {"B1": {"name": "rBBX-01: Recombinant Apicomplexa-related protein (ARP) having the sequence of SEQ ID NO:20; termed Barrogen, also called rBBX-01 or E1 (protein, listed as Eimeria tenella)", "chain": "GEEADTQAWDTSVREWLVDTGRVFAGGVASIADGCRLFGAAVEGEGNAWEELVKTNYQIEVPQEDGTSISVDCDEAETLRQAVVDGRAPNGVYIGGTKYKLAEVKRDFTFNDQNYDVAILGKNKGGGFLIKTPNENVVIALYDEEKEQNKADALTTALNFAEYLYQGGF"}},
  "tested_on": "Influenza A/NWS/33 (H1N1) virus",
  "settings": "for Mean Day to Death ± SD: mice dying prior to day 21",
  "key": {"[1]": {"settings": "100 ng/mouse/day i.p. d-2, 0, 3, 6"}, "[2]": {"settings": "1,000 ng/mouse/day i.p. d0, 3, 6"}, "[3]": {"settings": "10,000 ng/mouse/day i.p. d0, 3, 6"}},
  "note": "Like-named read-outs stand apart in the source and are kept apart here. Marks after values point to notes of the source that are not given here.",
  "data": [
    {"molecule": "B1", "values": [
      {"measurement": "Infected, Treated Mice Surv/Total", "setting": "100 ng/mouse/day i.p. d0 (4 h post-virus), 3, 6", "result": "2/10"},
      {"measurement": "Mean Day 11 SaO2 (% ± SD)", "setting": "100 ng/mouse/day i.p. d0, 3, 6", "result": "76.0 ± 1.9", "unit": "%"},
      {"measurement": "Mean Day to Death ± SD", "setting": "100 ng/mouse/day i.p. d0, 3, 6", "result": "12.1 ± 1.6", "unit": "days"},
      {"measurement": "Infected, Treated Mice Surv/Total", "setting": "[1]", "result": "0/10"},
      {"measurement": "Mean Day 11 SaO2 (% ± SD)", "setting": "[1]", "result": "75.3 ± 0.7", "unit": "%"},
      {"measurement": "Mean Day to Death ± SD", "setting": "[1]", "result": "12.3 ± 1.2", "unit": "days"},
      {"measurement": "Infected, Treated Mice Surv/Total", "setting": "1,000 ng/mouse/day i.p. d0 (4 h post-virus), 3, 6", "result": "3/10"},
      {"measurement": "Mean Day 11 SaO2 (% ± SD)", "setting": "[2]", "result": "76.5 ± 1.9", "unit": "%"},
      {"measurement": "Mean Day to Death ± SD", "setting": "[2]", "result": "12.7 ± 2.7", "unit": "days"},
      {"measurement": "prevention of death", "setting": "10,000 ng i.p. days 0, 3, 6", "result": 50, "unit": "%"},
      {"measurement": "inhibition of lung virus titer", "setting": "10,000 ng i.p. days 0, 3, 6, on both days 3 and 5", "result": 0.2, "unit": "loglo"},
      {"measurement": "Infected, Treated Mice Surv/Total", "setting": "10,000 ng/mouse/day i.p. d0 (4 h post-virus), 3, 6", "result": "5/10*"},
      {"measurement": "Mean Day 11 SaO2 (% ± SD)", "setting": "[3]", "result": "77.6 ± 3.0", "unit": "%"},
      {"measurement": "Mean Day to Death ± SD", "setting": "[3]", "result": "12.0 ± 1.4", "unit": "days"},
      {"measurement": "delay in mean day to death", "setting": "1,000 and 100 ng doses", "result": "one"},
      {"measurement": "inhibition of lung virus titer", "setting": "1,000 and 100 ng doses, day 3", "result": 0.5, "unit": "log10"}
    ]}
  ]
}
